# Laboratory results from the supplement of paper PMC3334620.
# Over roughly 33,000 sequences, “E-score (-0.5 to 0.5)” has its median near -0.035; the highest 2% begin near 0.35. The list shows a part of the results.
# Biological target: T1, Pdr3 (UniProt P33200)
# T1 sequence: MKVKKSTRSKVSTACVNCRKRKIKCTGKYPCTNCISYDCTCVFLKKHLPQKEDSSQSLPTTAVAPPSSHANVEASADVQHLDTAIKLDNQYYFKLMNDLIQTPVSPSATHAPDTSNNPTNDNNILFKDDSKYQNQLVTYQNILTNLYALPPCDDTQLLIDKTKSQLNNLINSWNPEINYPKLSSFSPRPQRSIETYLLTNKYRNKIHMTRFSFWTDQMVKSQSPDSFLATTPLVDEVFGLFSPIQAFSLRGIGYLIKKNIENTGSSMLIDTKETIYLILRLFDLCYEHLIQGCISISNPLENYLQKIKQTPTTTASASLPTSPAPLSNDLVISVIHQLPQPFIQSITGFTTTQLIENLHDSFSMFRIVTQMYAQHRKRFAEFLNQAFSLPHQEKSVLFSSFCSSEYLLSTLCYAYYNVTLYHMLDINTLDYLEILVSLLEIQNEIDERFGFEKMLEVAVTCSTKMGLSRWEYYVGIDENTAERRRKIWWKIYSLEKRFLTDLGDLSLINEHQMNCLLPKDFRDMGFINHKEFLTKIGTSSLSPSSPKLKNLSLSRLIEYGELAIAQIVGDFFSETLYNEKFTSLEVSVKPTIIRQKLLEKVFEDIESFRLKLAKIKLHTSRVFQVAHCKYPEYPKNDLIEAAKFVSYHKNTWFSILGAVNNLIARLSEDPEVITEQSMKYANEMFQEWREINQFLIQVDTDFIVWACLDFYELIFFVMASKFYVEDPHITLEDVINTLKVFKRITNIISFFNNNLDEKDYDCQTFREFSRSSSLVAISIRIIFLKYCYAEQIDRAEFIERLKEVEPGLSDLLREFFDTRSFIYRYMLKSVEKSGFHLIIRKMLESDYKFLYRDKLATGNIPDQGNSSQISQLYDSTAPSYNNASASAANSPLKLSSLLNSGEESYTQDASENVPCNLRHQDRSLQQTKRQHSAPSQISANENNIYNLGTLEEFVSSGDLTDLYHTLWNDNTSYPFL
# Assay: PBM E-score (8-mer binding enrichment) (E-score (-0.5 to 0.5)); higher = stronger / more preferred TF binding; most listed sequences are background and not binding sites
# Details: protein concentration: 200 nM; construct: GST-full length
# Method: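 Universal 'all 10-mer' protein binding microarrays (Agilent AMADID 015681) probed with GST-tagged S. cerevisiae TFs (full-length or DBD) made by in vitro transcription/translation (PURExpress), about 100-200 nM. Bound TF was detected with fluorescent anti-GST. Each ungapped 8-mer (which stands for itself and its reverse complement) is scored by the PBM enrichment score (E-score), a modified Wilcoxon-Mann-Whitney statistic from -0.5 to +0.5, computed with the Universal PBM Analysis Suite. Scale: above 0.35 generally sequence-specific binding.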
row,Sequence,PBM E-score
1,CAAGAGTC,-0.209
2,GCATAACC,0.0518
3,ATACCCGG,0.339
4,ATGGAAAC,0.00355
5,CACTGGGG,-0.123
6,CAGACAAA,-0.0282
7,GACTGCCC,-0.0371
8,GATGGAGC,-0.0831
9,AAGGCTAA,-0.151
10,GAAAGCAC,-0.0195
11,ATGAATCG,-0.0795
12,GCAGTGGA,-0.147
13,ACACTTAG,-0.0111
14,AGCGGGAC,0.185
15,GATTACGA,0.00113
16,AAAGCGTT,-0.117
17,CCCGTAGG,-0.111
18,CGAGTTAG,-0.128
19,GACAGGGA,-0.115
20,CGCTCCCA,0.0353
21,CCTAACTA,-0.0709
22,CTACACAA,0.0338
23,GGCACCCA,0.00772
24,ATAGCCGG,0.283
25,CCTCCATA,-0.253

row,Sequence,PBM E-score
1,CGAAGACA,-0.0157
2,AGGCACTG,-0.027
3,CCTGCAAG,-0.195
4,TGACGGAA,0.445
5,AGAGCCCT,-0.197
6,AACGCGCT,0.0299
7,CCACTGGC,0.0313
8,GCAAATTA,0.0295
9,CGGCGAGC,0.235
10,GCGATAAA,0.00239
11,ACTGGGAG,-0.0493
12,AGCGGGGG,-0.158
13,CAGGCGAA,-0.225
14,AATAGTAA,-0.0428
15,AAGTTGCC,0.22
16,ATGGCCCG,0.226
17,AAGGCTCA,-0.135
18,AGGGGTCA,-0.117
19,CATTCGTA,-0.19
20,TACTCTAA,-0.129
21,ACATCATG,0.00695
22,GCTGACAC,-0.0583
23,CGCTTCAA,-0.042
24,CCTTTCGA,-0.0541
25,GCGCTTTA,0.0174

row,Sequence,PBM E-score
1,AGTTCTTC,0.0309
2,ACTACACG,-0.0428
3,ATCTTTTG,-0.0527
4,AGTTACTA,-0.188
5,CGATCAAG,-0.0706
6,GACTAGGA,-0.205
7,CTGGCCTA,-0.119
8,GAGCAACA,-0.1
9,CACGGCTA,0.171
10,TCGGACCA,0.292
11,CTATGACC,-0.117
12,AACTATCG,-0.0648
13,GCGAGATA,0.105
14,ACGAGAGC,-0.0921
15,ACTAGCTA,0.0117
16,AGGGCTAA,-0.187
17,CTAGTAAA,0.11
18,ACAGGCGA,-0.114
19,CGACTGCC,-0.0106
20,ATTAAACG,0.0486
21,ACAGCTCG,-0.0493
22,GACCTTCA,-0.00701
23,AAGGACGT,-0.142
24,TATGGGGA,0.144
25,ACATGCCG,0.289

row,Sequence,PBM E-score
1,TAGCGCTA,-0.0551
2,ATCGGTAC,0.101
3,ATCATAGA,0.0765
4,CTATCGTC,-0.201
5,CTGGCTTC,-0.202
6,ACGAAAAC,0.0879
7,AAAGTCGT,-0.204
8,AAGCGGCT,0.101
9,ATCCCAAC,-0.13
10,CAAAACTG,-0.0643
11,CCTTTGAC,-0.144
12,CTCTTGGC,-0.178
13,CGCGTCAC,-0.0401
14,ATTTCAGG,0.0853
15,GCCATTGA,-0.0156
16,CCAACTTA,0.0261
17,GAAGCTGC,-0.0188
18,ATGTTGGC,0.0996
19,AAGTGACC,-0.0704
20,CGAAGGCA,-0.164
21,AGAATGCG,0.0628
22,AGCAGCCG,0.118
23,TCAGCCAA,-0.184
24,ATCTCGCA,-0.0558
25,AAGACTAA,-0.101

row,Sequence,PBM E-score
1,ATGTCACA,0.0202
2,TGATGGAA,-0.0643
3,AATGTGAG,-0.199
4,GTTTAAAA,-0.0898
5,CTAGCGTA,-0.128
6,AGACTAGC,-0.389
7,AAGTTGCT,-0.0641
8,GTACCTAC,-0.178
9,ACCTGTTA,-0.261
10,CTCACCGA,0.0691
11,ACTTTTGC,-0.0639
12,GGACACTA,0.0015
13,AGTATCGA,0.142
14,ACACCCAA,0.00439
15,AGGCATTG,-0.0729
16,CGACAGCG,0.139
17,TACGAATA,-0.189
18,ACAGGACA,0.109
19,CGCACTGA,0.00147
20,ACCCGCCG,0.388
21,GCTAAGGA,-0.244
22,AACTTCTG,-0.00451
23,CCGCGTAC,0.108
24,ACCGACGC,-0.117
25,CCAAGGGA,-0.252

row,Sequence,PBM E-score
1,CACGGCGA,0.124
2,CCTTCACA,-0.189
3,CTGACGGA,0.274
4,ACACCAAG,-0.096
5,AATCGAGC,0.0969
6,GGTGTTCA,-0.103
7,AGCAGCAT,-0.0468
8,CGAGCTGA,0.143
9,AGGTGACC,-0.0776
10,ACTACTCC,0.244
11,GATGTATA,0.0147
12,TCCTGGAA,-0.0272
13,CCCACACC,-0.0614
14,GCCGCAAA,0.191
15,ACCCTAAA,-0.0121
16,TATTAGAA,0.0715
17,AGGAAAAA,-0.157
18,CCCATGGG,0.269
19,GTATACTA,-0.0867
20,ACCATGGG,-0.0796
21,GCAGGTAC,-0.104
22,ATGCTACC,0.126
23,CGCTACAG,-0.122
24,AAAGCGAT,-0.0214
25,GGAAAAAA,0.239

row,Sequence,PBM E-score
1,CAAGACGC,0.00531
2,ATTCGATA,-0.105
3,GAGAAAAA,0.176
4,CACCAAGG,-0.143
5,TCCGGTAA,0.307
6,CGTAATGC,0.00552
7,AATACCTA,-0.112
8,TCAAGAAA,0.00042
9,AGAAGCAT,-0.105
10,AAGGTTCT,-0.0466
11,CCTGGTTC,0.0601
12,CTATGTCC,0.0411
13,AAGAAAAC,-0.0526
14,ATATCGAA,0.139
15,ATACGGAC,0.239
16,ACGATCTC,0.0299
17,CAGCGGGA,0.24
18,AGAAAATC,-0.0854
19,ACGATTTC,0.051
20,AGATCGAT,-0.0103
21,ACACACCG,0.11
22,AGTCTCTG,-0.135
